{"source": "paper PMC9911399", "about": "“Two distinct binding modes provide the RNA-binding protein RbFox with extraordinary sequence specificity”", "binders": {"B1": {"name": "UCGAUCA (DNA:RNA)", "RNA": "GGGAGACCGGAAUUCAGAUUGUCCUCGAUCAUUAAAUCCCGUCGUAGCCACCA", "DNA 1": "CAATCTGAATTCCGGTCTCCC", "DNA 2": "TGGTGGCTACGACGGGATT"}, "B2": {"name": "ACAGCAA (DNA:RNA)", "RNA": "B1 RNA with U25A, G27A, A28G, U29C, C30A", "DNA 1": "CAATCTGAATTCCGGTCTCCC", "DNA 2": "TGGTGGCTACGACGGGATT"}, "B3": {"name": "AUCGAGA (DNA:RNA)", "RNA": "B1 RNA with U25A, C26U, G27C, A28G, U29A, C30G", "DNA 1": "CAATCTGAATTCCGGTCTCCC", "DNA 2": "TGGTGGCTACGACGGGATT"}, "B4": {"name": "UCGCUCA (DNA:RNA)", "RNA": "B1 RNA with A28C", "DNA 1": "CAATCTGAATTCCGGTCTCCC", "DNA 2": "TGGTGGCTACGACGGGATT"}, "B5": {"name": "UAUAUCU (DNA:RNA)", "RNA": "B1 RNA with C26A, G27U, A31U", "DNA 1": "CAATCTGAATTCCGGTCTCCC", "DNA 2": "TGGTGGCTACGACGGGATT"}, "B6": {"name": "ACAUAAG (DNA:RNA)", "RNA": "B1 RNA with U25A, G27A, A28U, U29A, C30A, A31G", "DNA 1": "CAATCTGAATTCCGGTCTCCC", "DNA 2": "TGGTGGCTACGACGGGATT"}, "B7": {"name": "CGGAUAA (DNA:RNA)", "RNA": "B1 RNA with U25C, C26G, C30A", "DNA 1": "CAATCTGAATTCCGGTCTCCC", "DNA 2": "TGGTGGCTACGACGGGATT"}, "B8": {"name": "CUGGAUC (DNA:RNA)", "RNA": "B1 RNA with U25C, C26U, A28G, U29A, C30U, A31C", "DNA 1": "CAATCTGAATTCCGGTCTCCC", "DNA 2": "TGGTGGCTACGACGGGATT"}, "B9": {"name": "ACUCACU (DNA:RNA)", "RNA": "B1 RNA with U25A, G27U, A28C, U29A, A31U", "DNA 1": "CAATCTGAATTCCGGTCTCCC", "DNA 2": "TGGTGGCTACGACGGGATT"}, "B10": {"name": "AUUCCGA (DNA:RNA)", "RNA": "B1 RNA with U25A, C26U, G27U, A28C, U29C, C30G", "DNA 1": "CAATCTGAATTCCGGTCTCCC", "DNA 2": "TGGTGGCTACGACGGGATT"}, "B11": {"name": "UUAUCGA (DNA:RNA)", "RNA": "B1 RNA with C26U, G27A, A28U, U29C, C30G", "DNA 1": "CAATCTGAATTCCGGTCTCCC", "DNA 2": "TGGTGGCTACGACGGGATT"}, "B12": {"name": "ACUCUGU (DNA:RNA)", "RNA": "B1 RNA with U25A, G27U, A28C, C30G, A31U", "DNA 1": "CAATCTGAATTCCGGTCTCCC", "DNA 2": "TGGTGGCTACGACGGGATT"}, "B13": {"name": "UAUUAGA (DNA:RNA)", "RNA": "B1 RNA with C26A, G27U, A28U, U29A, C30G", "DNA 1": "CAATCTGAATTCCGGTCTCCC", "DNA 2": "TGGTGGCTACGACGGGATT"}, "B14": {"name": "GACUAAG (DNA:RNA)", "RNA": "GGGAGACCGGAAUUCAGAUUGUCCGACUAAGUUAAAUCCCGUCGUAGCCACCA", "DNA 1": "CAATCTGAATTCCGGTCTCCC", "DNA 2": "TGGTGGCTACGACGGGATT"}, "B15": {"name": "UGACGCC (DNA:RNA)", "RNA": "B1 RNA with C26G, G27A, A28C, U29G, A31C", "DNA 1": "CAATCTGAATTCCGGTCTCCC", "DNA 2": "TGGTGGCTACGACGGGATT"}, "B16": {"name": "UACAUUC (DNA:RNA)", "RNA": "B1 RNA with C26A, G27C, C30U, A31C", "DNA 1": "CAATCTGAATTCCGGTCTCCC", "DNA 2": "TGGTGGCTACGACGGGATT"}, "B17": {"name": "UCCGUCG (DNA:RNA)", "RNA": "B1 RNA with G27C, A28G, A31G", "DNA 1": "CAATCTGAATTCCGGTCTCCC", "DNA 2": "TGGTGGCTACGACGGGATT"}, "B18": {"name": "ACUCUAA (DNA:RNA)", "RNA": "B1 RNA with U25A, G27U, A28C, C30A", "DNA 1": "CAATCTGAATTCCGGTCTCCC", "DNA 2": "TGGTGGCTACGACGGGATT"}, "B19": {"name": "AGAUAGA (DNA:RNA)", "RNA": "B14 RNA with G25A, A26G, C27A, A30G, G31A", "DNA 1": "CAATCTGAATTCCGGTCTCCC", "DNA 2": "TGGTGGCTACGACGGGATT"}, "B20": {"name": "GUAACUC (DNA:RNA)", "RNA": "B14 RNA with A26U, C27A, U28A, A29C, A30U, G31C", "DNA 1": "CAATCTGAATTCCGGTCTCCC", "DNA 2": "TGGTGGCTACGACGGGATT"}}, "note": "Positions count from the first letter of the chain named. The list shows a part of the results.", "data": [{"biological_target": "T1, RBFOX1 RRM RbFoxmut (Fox-RRM*) (Homo sapiens, UniProt Q9NWB1 109-208, R118D;E147R;N151S;E152T)", "T1 sequence": "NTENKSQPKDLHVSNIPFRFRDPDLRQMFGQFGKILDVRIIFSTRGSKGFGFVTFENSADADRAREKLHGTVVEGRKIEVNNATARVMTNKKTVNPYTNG", "test": "EMSA; HiTS-Eq, 1 nM pool, 10 min; buffer printed only for the single-RNA assays: 10 mM Tris pH 7.5, 150 mM NaCl, 3.4 mM EDTA, 0.001% NP-40, 30 C", "settings": "tags: His6 N-terminal (pET28a); label: 5' 32P", "in_short": "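These values rest on relative association constants, computed from read-count changes of each RNA species versus the control reaction and normalised to the cognate motif. Reads came from free RNA recovered by 8% native PAGE after purified RbFox RRM (wild type or mutant) at increasing concentrations was equilibrated for 10 min in 50 µL with 1 nM of a 5′-radiolabelled pool with 7 randomized nucleotides and DNA-annealed flanks.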", "values": [{"binder": "B1", "binding signal": "0.079 KA relative to UGCAUGU"}, {"binder": "B2", "binding signal": "0.0934 KA relative to UGCAUGU"}, {"binder": "B3", "binding signal": "0.113 KA relative to UGCAUGU"}, {"binder": "B4", "binding signal": "0.0755 KA relative to UGCAUGU"}, {"binder": "B5", "binding signal": "0.0667 KA relative to UGCAUGU"}, {"binder": "B6", "binding signal": "0.143 KA relative to UGCAUGU"}, {"binder": "B7", "binding signal": "0.0883 KA relative to UGCAUGU"}, {"binder": "B8", "binding signal": "0.274 KA relative to UGCAUGU"}, {"binder": "B9", "binding signal": "0.0861 KA relative to UGCAUGU"}, {"binder": "B10", "binding signal": "0.0701 KA relative to UGCAUGU"}, {"binder": "B11", "binding signal": "0.0615 KA relative to UGCAUGU"}, {"binder": "B12", "binding signal": "0.0734 KA relative to UGCAUGU"}, {"binder": "B13", "binding signal": "0.0589 KA relative to UGCAUGU"}, {"binder": "B14", "binding signal": "0.101 KA relative to UGCAUGU"}, {"binder": "B15", "binding signal": "0.114 KA relative to UGCAUGU"}, {"binder": "B16", "binding signal": "0.0735 KA relative to UGCAUGU"}, {"binder": "B17", "binding signal": "0.099 KA relative to UGCAUGU"}, {"binder": "B18", "binding signal": "0.101 KA relative to UGCAUGU"}, {"binder": "B19", "binding signal": "0.0924 KA relative to UGCAUGU"}, {"binder": "B20", "binding signal": "0.057 KA relative to UGCAUGU"}]}]}
